These results are taken from patent US20230002486A1 (SPARX THERAPEUTICS, published 2023).

For experiment [1], the target named is T1, CLDN 18.2 fused with GFP at its C-terminal, on MCF7 cells (MCF7-CLDN 18.2) (human). The experiment can be described thus: cell-based or functional assay.
Experiment [2] has as its target T1, CLDN 18.2 fused with GFP at its …. The experiment can be described thus: flow cytometry on living MCF7 cells stably expressing CLDN 18.2, DyLight 650 anti-IgG. A general note: Flow cytometry measures light scatter and fluorescence of single cells or particles in a stream.
The target is the same in experiment [3]. The experiment can be described thus: cell-based or functional assay. This is another data set of the same source.
Experiment [4] has as its target claudin 18.2 (CLDN 18.2), recombinant protein (human). The experiment is described as follows: direct ELISA, coated recombinant CLDN 18.2 (FIG. 11A). (In general: ELISA stands for enzyme-linked immunosorbent assay.)
Experiment [5] shares this target. The experiment is described as follows: direct ELISA, coated recombinant CLDN 18.2. From the text: (§1) ELISA assay was employed to determine the binding properties of the bispecific antibodies to their antigens. […] The wells were then reacted with goat anti human IgG antibody conjugated with horseradish peroxidase (HRP).
Experiment [6] concerns the target T2, PD-L1 (programmed death-ligand 1), recombinant protein (human, UniProt Q9NZQ7 fragment, limits assumed).
T2 construct: the other ELISAs print only 'PD-L1'; also called human PDL1; CD274
The experiment can be described thus: competitive ELISA, coated PD-L1, antibody pre-incubated with soluble PD-L1 (FIG. 13B).

For experiment [7], the target named is T3, CLDN 18.2 expressed on stably transfected cells (HEK293T-CLDN 18.2, MiaPaCa-CLDN 18.2) (human). The experiment is described as follows: cell-based or functional assay.
For experiment [8], the target named is T2, PD-L1 (programmed death-ligand 1), …. The experiment is described as follows: direct ELISA, coated PD-L1 (FIG. 12A).
Experiment [9] addresses T3, CLDN 18.2 expressed on stably …. The experiment is described as follows: In-Cell ELISA on fixed HEK293T cells over-expressing CLDN 18.2.
In experiment [10] the target is T2, PD-L1 (programmed death-ligand 1), …. The experiment is described as follows: direct ELISA, coated PD-L1.
Text: as §1

The target in experiment [11] is T3, CLDN 18.2 expressed on stably …. The experiment is described as follows: cell-based or functional assay. The source holds these as a separate data set.
The target in experiment [12] is T2, PD-L1 (programmed death-ligand 1), …. The experiment can be described thus: direct ELISA, coated PD-L1 (FIG. 13A).
The target is the same in experiment [13]. The experiment is described as follows: competitive ELISA, coated PD-L1, antibody pre-incubated with soluble PD-L1 (FIG. 12B).
Experiment [14] deals with claudin 18.2 (CLDN 18.2), recombinant protein (human). The experiment can be described thus: direct ELISA, coated recombinant CLDN 18.2 (FIG. 11B).
Experiment [15] addresses T2, PD-L1 (programmed death-ligand 1), …. The experiment is described as follows: competitive ELISA, coated PD-L1, antibody pre-incubated with soluble PD-L1.

A word on the EC50 (read off the curve): it is the concentration giving half of the maximal effect. A higher EC50 (read off the curve) goes with a less potent agent. The Kd is the constant that tells how readily two partners part at equilibrium. A word on the IC50: it is the midpoint of a concentration-inhibition curve.

T2 sequence (Q9NZQ7 19-238 limits assumed): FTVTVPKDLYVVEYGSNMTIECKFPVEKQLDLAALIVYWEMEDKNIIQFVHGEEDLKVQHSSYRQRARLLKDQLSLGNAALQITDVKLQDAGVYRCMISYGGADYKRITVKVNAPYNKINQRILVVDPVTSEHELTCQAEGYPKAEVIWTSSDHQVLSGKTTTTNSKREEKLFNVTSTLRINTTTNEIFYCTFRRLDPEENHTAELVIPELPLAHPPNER

B1: Dblnk4, linker-enhanced single-chain bispecific antibody (bispecific antibody)
chain: DIQMTQSPSSLSASVGDRVTITCKSSQSLLNSGNQKSYLTWYQQKPGKAPKLLIYWASTLESGVPSRFSGSGSGTDYTLTISSLQPEDFATYYCQNAYFFPFTFGQGTKVEIKGGGGSGEVQLVESGGGLVQPGGSLRLSCAASGFTFSRYWMSWVRQAPGKGLEWVANIKQDGSEKYYVDSVKGRFTISRDNAKNSLYLQMNSLRAEDTAVYYCAREGGWFGELAFDYWGQGTLVTVSSGSSSGGGSGGSSSSSSEIVLTQSPGTLSLSPGERATLSCRASQRVSSSYLAWYQQKPGQAPRLLIYDASSRATGIPDRFSGSGSGTDFTLTISRLEPEDFAVYYCQQYGSLPWTFGQGTKVEIKSGGSEVQLVESGGGLVQPGGSLRLSCAVSGYTFSMNWVRQAPGKGLEWVAWINMYTGEPTYADDFKGRFTISRDDSKNTLYLQMNSLRAEDTAVYYCARLYNGNSLDYWGQGTLVTVSSGGGGS[human IgG1 Fc with C220S (EU numbers) not printed]
notes: Single polypeptide with Fc; also called DbInk4; DbInk 4
For the molecule B1, the “ADCC Reporter in MCF7-CLDN 18.2, EC50” value in experiment [1] stood at 2 pM. Further, the 50% effective concentration (EC50 (read off the curve)) in experiment [2] was around 5 nM. The “ADCC reporter assay, EC50 (FIG. 24A)” value in experiment [3] came to 1.73 pM. The dissociation constant (Kd) in experiment [4] amounted to 0.239 nM; in [5], 0.24 nM.

B2: Dblnk2, linker-enhanced single-chain bispecific antibody (bispecific antibody)
chain: DIQMTQSPSSLSASVGDRVTITCKSSQSLLNSGNQKSYLTWYQQKPGKAPKLLIYWASTLESGVPSRFSGSGSGTDYTLTISSLQPEDFATYYCQNAYFFPFTFGQGTKVEIKSGGGGEVQLVESGGGLVQPGGSLRLSCAASGFTFSRYWMSWVRQAPGKGLEWVANIKQDGSEKYYVDSVKGRFTISRDNAKNSLYLQMNSLRAEDTAVYYCAREGGWFGELAFDYWGQGTLVTVSSSSSGSGGGGSGGGGGGEIVLTQSPGTLSLSPGERATLSCRASQRVSSSYLAWYQQKPGQAPRLLIYDASSRATGIPDRFSGSGSGTDFTLTISRLEPEDFAVYYCQQYGSLPWTFGQGTKVEIKGSSGSEVQLVESGGGLVQPGGSLRLSCAVSGYTFSMNWVRQAPGKGLEWVAWINMYTGEPTYADDFKGRFTISRDDSKNTLYLQMNSLRAEDTAVYYCARLYNGNSLDYWGQGTLVTVSSGGGGS[human IgG1 Fc with C220S (EU numbers) not printed]
notes: Single polypeptide with Fc; also called DbInk2; DbInk 2
With B2, the figures for the 50% inhibitory concentration (IC50) in [6] and in experiment [13] were 0.426 nM and 0.573 nM, respectively. In addition, the “ADCC Reporter in MCF7-CLDN 18.2, EC50” value in [1] stood at 11 pM. Further, the “CDC in MCF7-CLDN 18.2, EC50” value in experiment [1] was 1 nM. In experiment [7], the “ADCC Reporter in HEK293-CLDN18.2, EC50” value worked out at 9.4 pM. For the same molecule, the “CDC in MiaPaCa-CLDN 18.2, EC50” value in experiment [7] is 0.35 nM. The Kd was 0.882 nM in experiment [8]; 3.23 nM in experiment [9]; 0.64 nM in experiment [10]; 0.323 nM in experiment [4]; 0.32 nM in experiment [5]; 0.642 nM in experiment [12]. Besides, the “CDC against MCF7-CLDN 18.2 cells, EC50 (FIG. 17A)” value in experiment [3] came to 1.03 nM. The “ADCC reporter assay, EC50 (FIG. 23A)” value in [11] was 9.37 pM. Besides, the “CDC against Mia Paca-CLDN 18.2 cells, EC50 (FIG. 17B)” value in experiment [11] stood at 0.349 nM.

B3: Dblnk12, linker-enhanced single-chain bispecific antibody (bispecific antibody)
chain: DIQMTQSPSSLSASVGDRVTITCKSSQSLLNSGNQKSYLTWYQQKPGKAPKLLIYWASTLESGVPSRFSGSGSGTDYTLTISSLQPEDFATYYCQNAYFFPFTFGQGTKVEIKGSGSEVQLVESGGGLVQPGGSLRLSCAASGFTFSRYWMSWVRQAPGKGLEWVANIKQDGSEKYYVDSVKGRFTISRDNAKNSLYLQMNSLRAEDTAVYYCAREGGWFGELAFDYWGQGTLVTVSSSSSSSGGGGSGGSSSGEIVLTQSPGTLSLSPGERATLSCRASQRVSSSYLAWYQQKPGQAPRLLIYDASSRATGIPDRFSGSGSGTDFTLTISRLEPEDFAVYYCQQYGSLPWTFGQGTKVEIKSSSGGGEVQLVESGGGLVQPGGSLRLSCAVSGYTFSMNWVRQAPGKGLEWVAWINMYTGEPTYADDFKGRFTISRDDSKNTLYLQMNSLRAEDTAVYYCARLYNGNSLDYWGQGTLVTVSSGGGGS[human IgG1 Fc with C220S (EU numbers) not printed]
notes: Single polypeptide with Fc; also called DbInk12; DbInk 12
B3: the “ADCC Reporter in MCF7-CLDN 18.2, EC50” value in experiment [1] was found to be 4.4 pM. The “ADCC Reporter in HEK293-CLDN18.2, EC50” value in [7] was 5 pM. The same molecule registered a Bmax in experiment [9] of 1.07 nM. Moreover, the dissociation constant (Kd) was 0.632 nM in experiment [9], 0.205 nM in [14] and 0.2 nM in experiment [5]. Further, the “ADCC reporter assay, EC50 (FIG. 24B)” value in experiment [3] worked out at 4.41 pM. The “ADCC reporter assay, EC50 (FIG. 23A)” value in experiment [11] is 4.84 pM.

B4: Dblnk15, linker-enhanced single-chain bispecific antibody (bispecific antibody)
chain: DIQMTQSPSSLSASVGDRVTITCKSSQSLLNSGNQKSYLTWYQQKPGKAPKLLIYWASTLESGVPSRFSGSGSGTDYTLTISSLQPEDFATYYCQNAYFFPFTFGQGTKVEIKGGGSGEVQLVESGGGLVQPGGSLRLSCAASGFTFSRYWMSWVRQAPGKGLEWVANIKQDGSEKYYVDSVKGRFTISRDNAKNSLYLQMNSLRAEDTAVYYCAREGGWFGELAFDYWGQGTLVTVSSGSSSGGSSGSGGGGGGGEIVLTQSPGTLSLSPGERATLSCRASQRVSSSYLAWYQQKPGQAPRLLIYDASSRATGIPDRFSGSGSGTDFTLTISRLEPEDFAVYYCQQYGSLPWTFGQGTKVEIKSGGSEVQLVESGGGLVQPGGSLRLSCAVSGYTFSMNWVRQAPGKGLEWVAWINMYTGEPTYADDFKGRFTISRDDSKNTLYLQMNSLRAEDTAVYYCARLYNGNSLDYWGQGTLVTVSSGGGGS[human IgG1 Fc with C220S (EU numbers) not printed]
notes: Single polypeptide with Fc; also called DbInk15
Regarding B4, the IC50 in experiment [6] was 0.58 nM. The Kd stood at 0.46 nM in experiment [10]; 0.232 nM in experiment [14]; 0.23 nM in [5]; 0.46 nM in experiment [12]; 0.58 nM in [15].

B5: Dblnk3, linker-enhanced single-chain bispecific antibody (bispecific antibody)
chain: DIQMTQSPSSLSASVGDRVTITCKSSQSLLNSGNQKSYLTWYQQKPGKAPKLLIYWASTLESGVPSRFSGSGSGTDYTLTISSLQPEDFATYYCQNAYFFPFTFGQGTKVEIKSGGGGEVQLVESGGGLVQPGGSLRLSCAASGFTFSRYWMSWVRQAPGKGLEWVANIKQDGSEKYYVDSVKGRFTISRDNAKNSLYLQMNSLRAEDTAVYYCAREGGWFGELAFDYWGQGTLVTVSSGGGGSGSGSSGSSSGEIVLTQSPGTLSLSPGERATLSCRASQRVSSSYLAWYQQKPGQAPRLLIYDASSRATGIPDRFSGSGSGTDFTLTISRLEPEDFAVYYCQQYGSLPWTFGQGTKVEIKSGGGGEVQLVESGGGLVQPGGSLRLSCAVSGYTFSMNWVRQAPGKGLEWVAWINMYTGEPTYADDFKGRFTISRDDSKNTLYLQMNSLRAEDTAVYYCARLYNGNSLDYWGQGTLVTVSSGGGGS[human IgG1 Fc with C220S (EU numbers) not printed]
notes: Single polypeptide with Fc; also called DbInk3; DbINK3
B5: the IC50 in experiment [6] stood at 0.656 nM. In [1], the “ADCC Reporter in MCF7-CLDN 18.2, EC50” value was 7.5 pM. The “CDC in MCF7-CLDN 18.2, EC50” value in [1] amounted to 0.82 nM. Also, in experiment [7], the “ADCC Reporter in HEK293-CLDN18.2, EC50” value came to 1 pM. This molecule came in with a Bmax in [9] of 1.01 nM. Besides, the dissociation constant Kd in experiment [9] was 0.523 nM; in [10], 0.5 nM; in experiment [4], 0.294 nM; in [5], 0.29 nM; in experiment [12], 0.498 nM; in experiment [15], 0.66 nM. Moreover, the “CDC against MCF7-CLDN 18.2 cells, EC50 (FIG. 17A)” value in experiment [3] is 0.821 nM. For the same molecule, the “ADCC reporter assay, EC50 (FIG. 23A)” value in [11] was 1.04 pM.

B6: Dblnk17, linker-enhanced single-chain bispecific antibody (bispecific antibody)
chain: DIQMTQSPSSLSASVGDRVTITCKSSQSLLNSGNQKSYLTWYQQKPGKAPKLLIYWASTLESGVPSRFSGSGSGTDYTLTISSLQPEDFATYYCQNAYFFPFTFGQGTKVEIKSGSGGSEVQLVESGGGLVQPGGSLRLSCAASGFTFSRYWMSWVRQAPGKGLEWVANIKQDGSEKYYVDSVKGRFTISRDNAKNSLYLQMNSLRAEDTAVYYCAREGGWFGELAFDYWGQGTLVTVSSGSGGGGSSGSSGSGGSGEIVLTQSPGTLSLSPGERATLSCRASQRVSSSYLAWYQQKPGQAPRLLIYDASSRATGIPDRFSGSGSGTDFTLTISRLEPEDFAVYYCQQYGSLPWTFGQGTKVEIKSSSGSSEVQLVESGGGLVQPGGSLRLSCAVSGYTFSMNWVRQAPGKGLEWVAWINMYTGEPTYADDFKGRFTISRDDSKNTLYLQMNSLRAEDTAVYYCARLYNGNSLDYWGQGTLVTVSSGGGGS[human IgG1 Fc with C220S (EU numbers) not printed]
notes: Single polypeptide with Fc; also called DbInk17; DbInk 17
For the molecule B6, the IC50 in [6] amounted to 0.652 nM. The equilibrium dissociation constant (Kd) in [10] stood at 0.44 nM; in experiment [14] it was 0.225 nM; in experiment [5], 0.22 nM; in experiment [12], 0.437 nM.
